In article PMC12040169 (PLOS Biology, 2025):
The list shows a part of the results.

tested on: T1, C. trachomatis L2/434/Bu expressing GFP (CTL2-GFP); parameters: species or system HeLa; C. trachomatis total inclusion area by high-content imaging, normalised to DMSO; details: total inclusion area; 28.5 h, 10 µM; inhibitor
T1 construct: L2/434/Bu GFP intracellular growth in HeLa cells
Procedure, shortened: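 Imaging read-out: GFP inclusions and Hoechst nuclei captured by high-content imaging after fixation. Inclusion area/number = chlamydial growth; nuclei count = host cell viability. MIC calculated per earlier method.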

SMILES	% of control remaining
Cn1ncc(N2CCC(CNC(=O)c3ccccc3Cl)C2)cc1=O (stereo not shown) [CBK306747]	63.0711
O=C(O)CCc1ccc(-c2ccc(F)cc2)n1CCc1ccccc1 [CBK265936]	82.5556
CCOC(=O)c1cccc(-c2cc3ccccc3o2)n1 [CBK149243]	112.158
COc1cccc(NC(=O)c2ccc(N(C)Cc3ccccc3)c([N+](=O)[O-])c2)c1 [CBK267827]	83.3679
c1ccc(CSc2ccc3nnc(-c4ccncc4)n3n2)cc1 [CBK287625]	44.8089
Sc1nnc(COc2ccc(Cl)cc2Cl)n1Cc1ccccc1 [CBK263138]	86.6851
CCCS(=O)(=O)n1ccn(-c2ccc(Cl)c(Cl)c2)c1=O [CBK106667]	80.0345
O=C(Nc1cccnc1)c1cc2cc(F)ccc2[nH]1 [CBK107272]	123.511
COc1ccccc1CCNC(=O)N1CCC(Oc2cccnc2)CC1 [CBK307615]	65.6146
CCCC(=O)Nc1ccc(OCCOC(C)(C)C)c(C(C)=O)c1 [CBK305691]	86.9704
COc1ccc(CCNc2ncnc3c2cnn3-c2ccc(Cl)cc2)cc1OC [CBK265804]	91.7849
N/N=C(\CCC(=O)O)c1ccccc1 [CBK261306]	75.6139
Cc1ccccc1-c1nc(S(=O)(=O)c2ccc(Cl)cc2)c(NCC2CCCO2)o1 (stereo not shown) [CBK267668]	88.6084
O=C(O)c1ccc(S(=O)(=O)c2ccc3c(c2)C(=O)N(c2ccc(Sc4ccc([N+](=O)[O-])cc4)cc2)C3=O)cc1 [CBK262869]	71.7205
Cc1nn(C)cc1-c1cncn1CCn1nc(C)c(C)c1C [CBK281785]	90.5906
NC1CCC(NC(=O)c2cnc(-c3ccc(Cl)cc3)c(-c3ccco3)c2)CC1 (stereo not shown) [CBK037563]	126.104
COc1cccc(C(=O)Nc2nc(-c3ccc(S(=O)(=O)N4CCCC4)cc3)cs2)c1 [CBK096257]	91.9479
COc1ccccc1-c1ccc(CC2(C(=O)NCc3cccc(F)c3)CCOCC2)cc1 [CBK286521]	86.6437
O=C(O)CSc1nnc(-c2ccc3c(c2)OCO3)n1-c1ccccc1 [CBK131690]	80.4848
Cc1nc2cccnc2n1CCNC(=O)c1cccc(Cl)c1 [CBK283593]	99.9821
O=C(CC1S/C(=N/N=C/c2ccccc2C(=O)O)NC1=O)Nc1ccccc1 (stereo not shown) [CBK264515]	109.552
Cc1cc(NS(=O)(=O)c2ccc(NC(=O)/C=C/c3ccc(C)o3)cc2)nc(C)n1 [CBK265474]	45.1126
O=C1OCCN1S(=O)(=O)c1ccc(CN2CCCN(Cc3ccc(S(=O)(=O)N4CCOC4=O)cc3)CC2)cc1 [CBK024728]	96.4711
C/C(=N\NC(=N)SC1CC(=O)N(c2ccc(C(=O)O)cc2)C1=O)c1cccs1 (stereo not shown) [CBK262471]	80.822
CC(=O)N1CCN(c2ccccc2NC(=O)Cc2ccccc2C(=O)O)CC1 [CBK286802]	113.347
Cc1cc(C)n(C)c(=O)c1C(=O)NC(C)Cc1ccccn1 (stereo not shown) [CBK283063]	104.815
Cc1nn(C(C)CC(=O)NC2CCCOC2)c(C)c1C (stereo not shown) [CBK283133]	96.4729

SMILES	% of control remaining
Cc1cc(C)n2nc(C(=O)NCCCn3ccnc3C(C)C)nc2n1 [CBK307635]	109.285
COC(=O)c1ccc(-n2cc(-c3cccc(C(F)(F)F)c3)nn2)cc1 [CBK112936]	90.761
CO[C@@H](C(=O)Nc1cnc(-c2ccc(F)cc2)c(-c2ccsc2)n1)c1ccccc1 [CBK036803]	82.0844
Cc1cc(S(=O)(=O)Nc2cccc(Br)c2)c(C)cc1Cl [CBK043652]	93.8662
N#CCCCN1CCC2(CC1)CN(C(=O)CO)c1ccccc12 [CBK137007]	34.7975
CCNC(=O)Nc1cc2cccnc2nc1-c1cccc(C(F)(F)F)c1 [CBK070645]	106.843
Cc1ccc2c(c1)cc(C)c1nn(CC(=O)N3CCCCC3)c(=O)n12 [CBK283870]	89.1848
CNc1ccc2cccc(OCCO)c2n1 [CBK149727]	58.5268
Cc1ccc(OCC(=O)Nc2ccc3c(c2)oc2ccccc23)cc1[N+](=O)[O-] [CBK266036]	124.368
S=C(Nc1ccccc1)NC1C2CN3CCN(C2)CC1(c1ccccc1)C3 (stereo not shown) [CBK261936]	87.7789
COCc1cc(=O)[nH]c(N2CCN(Cc3ccccc3)CC2)n1 [CBK270253]	128.303
C[C@@H]1CN(C(=O)c2ccc3[nH]cnc3c2)C[C@H](C)O1 [CBK200120]	77.0692
O=C1CC(c2cccs2)CC(=O)C1=CNCCN1CCNCC1 (stereo not shown) [CBK264785]	124.926
CC(=O)C1=C(O)C(=O)N(CCCC(=O)O)C1c1cccc([N+](=O)[O-])c1 (stereo not shown) [CBK263801]	99.6977
CC(C)C(NC(=O)C1C=CCN1S(C)(=O)=O)c1cccs1 (stereo not shown) [CBK282701]	120.19
Cc1cccc(-c2nc(CN(C)CC(=O)NC(C)C)no2)c1 [CBK305109]	44.5822
Cc1cccc(C)c1-c1cn2ccnc2c(NC2CCOCC2)n1 [CBK037311]	120.092
COc1cc(Cn2c(=O)[nH]c3ncc(-c4ccco4)nc32)cc(OC)c1OC [CBK064461]	74.3208
Cn1[nH]c(CO)c(Cc2c(Cl)cccc2Cl)c1=O [CBK092278T]	124.672
Cc1ccc(C2=NN(C(=N)SC3CC(=O)N(c4ccc(C(=O)O)cc4)C3=O)C(c3ccc(Cl)cc3)C2)cc1 (stereo not shown) [CBK262472]	96.682
COc1ccc(C(NC(=O)CSCc2cccc(C(=O)O)c2)c2ccc(OC)cc2)cc1 [CBK296680]	86.7784
Cc1cc(C)n(CCCC(=O)N2CCOCC(O)(CN3CCCC3)C2)n1 (stereo not shown) [CBK306550]	39.7846
CC1CCCC(C)N1C(=O)CN1C2CCC1CC(O)(c1ccco1)C2 (stereo not shown) [CBK284043]	104.17
FC(F)(F)c1ccc(CN2CCCN(c3ccnc(OCC4COc5ccccc5O4)n3)CC2)cc1 (stereo not shown) [CBK083233T]	84.6533
COc1ccc(CN(C)c2c(C)nc3c(OCC(=O)C(C)(C)C)cccn23)cc1 [CBK147458]	126.496
Cc1cc2nc(/C(C#N)=C/c3ccncc3)[nH]c2cc1C [CBK268745]	93.5388
Cc1cc(C)c(S(=O)(=O)NC(C)C)c(C)c1-n1cnnn1 [CBK270197]	97.5491

SMILES	% of control remaining
CN1C(=O)C2(CC(=O)N(Cc3ccccc3)C2=O)c2cc(F)ccc21 (stereo not shown) [CBK075268]	98.3224
O=C(O)c1ccc(COc2ccc(/C=C3\SC(=S)N(Cc4cccnc4)C3=O)cc2Cl)cc1 [CBK264672]	116.856
COCCNC(=O)C1CCN(c2nc3c(-c4ccccc4F)csc3c(=O)[nH]2)CC1 [CBK215434]	101.673
Cc1nc(-c2ccccc2)sc1CNC(=O)Cc1ccccc1F [CBK092372]	97.463
CS(=O)(=O)N(Cc1ccccc1)c1ccc(C(=O)Nc2ccccc2Cl)cc1 [CBK262745]	99.064
CCc1cc(CNC(=O)c2ccc(C)c(-n3nc(C)cc3C)c2)on1 [CBK281557]	105.291
COc1ccc(S(=O)(=O)Nc2ccccc2C(=O)O)cc1OC [CBK042368]	118.011
CC(C)NC(=O)CN1CCN(c2ccc(C#N)cc2Cl)CC1 [CBK305470]	72.2678
Cc1ccc(C(=O)NCc2nc3ccccc3[nH]2)c(N2CCOCC2)n1 [CBK106200]	81.4043
Nc1ncc(-c2ccncc2)nc1-c1ccc(C=O)cc1 [CBK064102]	105.354
CN(C(=O)NC1CCCc2c1cnn2CCO)c1ccccc1F (stereo not shown) [CBK304024]	75.4978
CC(C)Nc1cc(Sc2ccc(F)cc2)ncn1 [CBK089498]	88.1767
Cc1ccc(-c2csc3ncn4nnnc4c23)cc1 [CBK019710]	91.3948
CN(C)C(=O)C1(Cc2ccc(-c3cccs3)cc2)CCN(C(=O)c2ccccc2)CC1 [CBK286270]	89.1452
O=C(N/N=C/c1ccc(-c2ccc([N+](=O)[O-])cc2)o1)c1cccnc1 [CBK262287]	98.9026
CCCN1CC(NS(=O)(=O)c2ccc(OC)c3c2CCCC3)CC1=O (stereo not shown) [CBK307098]	88.6704
Nc1ccc([C@@H]2CN(Cc3ccccc3)C[C@]23CCCC(=O)N3)cc1 [CBK284649]	105.102
CCCN1CCCC(NS(=O)(=O)c2cc(-n3cccn3)ccc2OC)C1 (stereo not shown) [CBK307426]	29.4715
CC(C)(C)NC(NC(=O)Cc1ccccc1)C(Cl)(Cl)Cl (stereo not shown) [CBK261090]	86.1728
Cc1csc2ncc(C(=O)Nc3ccc(Cl)c(Cl)c3)c(=O)n12 [CBK287459]	79.1556
CCOC(=O)c1cnn(C2CCCN(Cc3cccn3C)C2)c1 (stereo not shown) [CBK305114]	103.969
Cc1cc(C(=O)NCCn2ccnc2C)c2cccc(Cl)c2n1 [CBK282460]	106.894
CN1CCN(C(=O)C2CCN(CCCc3ccccc3)CC2)CC1 [CBK264326G]	119.444
CCOC(=O)NC(=O)C(C#N)/C=N/NC(=O)CCCNc1ncc(C(F)(F)F)cc1Cl (stereo not shown) [CBK008354]	79.6823
CN(C)CC(=O)N1c2ccccc2CCc2ccc(NC(=O)c3ccc([N+](=O)[O-])cc3)cc21 [CBK278207C]	89.7477
